In PubChem BioAssay (NCI):
“And” between values parts separate entries of the source, which are not always exact repeats. Identical values can stand only once.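 Cells were grown in 96-well plates and exposed to each compound for 48 hours at five concentrations; endpoints were interpolated linearly between bracketing concentrations, or set to the highest concentration if not reached. GI50 = concentration required for 50% inhibition of growth. TGI: total growth inhibition.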

Test system: NCI-H322M lung
Assay: NCI anticancer screen, dose series, 48 h

Structure (SMILES)	GI50	TGI
C#CC(F)(F)[C@]1(O)CC[C@H]2[C@@H]3CCC4=CC(=O)CCC4=C3[C@@H](c3ccc(C4CC4)cc3)C[C@@]21C	6.08 µM and 4.26 µM	> 100 µM
c1ccc2c(c1)N[C@@H]1c3[nH]c4ccccc4c3CC[C@H]21	–	31.8 µM
O=C1C(c2ccccc2)=[N+]([O-])c2ccc(Cl)cc21	–	> 100 µM
CCCCCCCCCCCCCCCC(=O)Nc1ccn(C2CC(OP(=O)(O)OCC3OC(n4cc(F)c(=O)[nH]c4=O)CC3OC(C)=O)C(CO)O2)c(=O)n1 (centres undefined)	–	> 100 µM
O=C(NNC(=O)c1ccccc1S)c1ccccc1S	51.6 µM	25 µM and > 100 µM
NS(=O)(=O)c1ccc(N=Nc2c(O)[nH]c3ccc(Cl)cc23)cc1	17.7 µM	> 25 µM
COc1ccc(-c2csc(=[N+]3CCCCC3)s2)cc1	–	48.6 µM
COc1ccc(N(CN2C(=O)CCC2OC)C(C)=O)cc1 (centres undefined)	–	> 100 µM
C=C(C)[C@@H]1CC[C@]2(C(N)=O)CC[C@]3(C)[C@H](CC[C@@H]4[C@@]5(C)C/C(=C/c6cccnc6)C(=O)C(C)(C)[C@@H]5CC[C@]43C)[C@@H]12	12.6 µM	> 100 µM
NC1(P(=O)(O)O)CCCCC1	–	> 100 µM
NC(N)=N/N=C(\c1ccc(F)cc1)c1ccc(C(F)(F)F)cc1	–	7.61 µM
CCCCCCCCCCCCC(CC)CCCCC(=O)O (centres undefined)	–	> 100 µM
CN(C)CCNc1ccc2nnn3c4ccc(O)cc4c(=O)c1c23	–	10.7 µM
Cc1ccc2c(/C=C/c3ccc(N(C)C)cc3)ccnc2c1C	–	40.9 µM
COc1cc2c(cc1OCCCCCN1CCN(CCCCCOc3cc4c(cc3OC)C(=O)C3CCC[C@H]3C=N4)CC1)N=C[C@@H]1CCCC1C2=O (some centres undefined)	28.2 µM	> 100 µM
Cc1ccc(S(=O)(=O)C2=C([Si](C)(C)C)C3CC2[C@@H]2C4C=CC(CC4)[C@H]32)cc1 (some centres undefined)	–	> 100 µM
CCOC(=O)C(C(=O)OCC)P(=S)(S)c1ccccc1 (centres undefined)	–	> 100 µM
O=S(=O)(Nc1ccc2ccccc2c1)N1CCCCC1	16.2 µM	47.2 µM
CC[O-].CC[O-].CN(C)c1ccc([O-])cc1.CN(C)c1ccc([O-])cc1.[Ti+4]	42.6 µM	> 100 µM
[N-]=[N+]=Nc1ncnc2c1sc(=S)n2-c1ccccc1	–	> 100 µM
O=C(O)C(CO)N=Cc1nc(-c2ccccc2)oc1O (centres undefined)	–	> 100 µM
Cc1c(C)n(COCCO)c2ncnc(N)c12	–	> 100 µM
CC(NC(=O)OC(C)(C)C)C(=O)NC1CCCC1 (centres undefined)	–	> 100 µM
COc1cc(Br)c(CC2C3=C(CCN2C(=O)C2CCC2)CC2(CC3)OCCO2)cc1O (centres undefined)	–	> 100 µM
COC(=O)[C@]1(C)CCC[C@]2(C)C3CC4OOC3(C=C4C(C)(C)O)CCC21 (some centres undefined)	–	> 100 µM

Structure (SMILES)	GI50	TGI
Oc1ccc2c(c1)OCC1(O)Cc3cc(O)c(O)cc3C21 (centres undefined)	–	> 55.8 µM
CN(C)c1nc2n(CCO)ccnc-2c(=O)n1	–	> 100 µM
CCCCCCCC/C(=C\C1=C(C)C(=O)C(OC)=C(OC)C1=O)C(=O)O	> 100 µM	> 100 µM
O=Cc1cn(Cc2ccccc2)c2ccccc12	13.7 µM	> 100 µM
CCOC(=O)c1cc(C)n(CN(CCO)Cn2nc(C(=O)OCC)cc2C)n1	–	> 100 µM
CC1(CO)OC(n2cnc3c(N)ncnc32)C(O)C1O (centres undefined)	–	> 100 µM
Nc1c(C(=O)N/N=C/c2ccco2)cnn1-c1ccnc2c(C(F)(F)F)cccc12	54.2 µM	> 100 µM
CCOc1ccc(C2Oc3c(cccc3OC)C=C2[N+](=O)[O-])cc1OCC (centres undefined)	–	31.3 µM
C/C(=N\Nc1nc2ccccc2o1)c1ccc2ccccc2n1	–	> 100 µM
COc1ccc(C2=Cc3nc2c(-c2ccccc2)c2ccc([nH]2)c(-c2ccccc2)c2nc(c(-c4ccccc4)c4ccc([nH]4)c3-c3ccccc3)C=C2)cc1	–	> 100 µM
Cc1ccc(C(=O)N/N=C(\N=Nc2cccc(C)c2)c2ccc(N(CCC#N)CCC#N)cc2C)cc1	–	> 100 µM
CC(C)(C(=O)NCC(F)(F)C(F)(F)F)C(=O)N[C@@H]1C(=O)Nc2ccccc2-c2ccccc21	> 100 µM	> 100 µM
CCOC(=O)c1ccc(N=Cc2ccc(N(CCC#N)CCC#N)cc2)cc1	–	> 100 µM
Cn1cc(C2=C(n3ccc4ccccc43)C(=O)NC2=O)c2ccccc21	> 25 µM	> 25 µM
c1cncc(CNCCN2CCNCC2)c1	–	> 100 µM
CC1(C)OCC(C2OC(OC(=O)c3ccc(C(F)(F)F)cc3)C3OC(C)(C)OC23)O1 (centres undefined)	–	> 77.5 µM
CN(C)N=Nc1cn[nH]c1C(N)=O	–	> 100 µM
O=C1c2ccccc2CC12CCC1(CC2)OCCO1	–	> 100 µM
CC(CO)CCC(O)C(C)(O)C1CCC2(O)C3=CC(=O)C4CC(O)C(O)CC4(C)C3CCC12C (centres undefined)	–	> 100 µM
CO/C(=N\N=C\c1ccccc1F)c1ccncc1	–	> 10 µM
COC(=O)C1(CCC(=O)N(C)c2ccccc2)NNC2C(=O)N(c3ccccc3)C(=O)C21 (centres undefined)	–	> 10 µM
CCOC(=O)c1ccc(C(=O)/C(C#N)=C2\CCCN2)n1C	–	> 100 µM
CN(C)CCNS(=O)(=O)N(C)C	–	> 100 µM
CC(=O)OCc1cc(=O)n2c([nH]c3ccccc32)c1C#N	–	> 100 µM
CC(C)C(NCc1c2ccccc2[n+]([O-])c2ccccc12)C(=O)O (centres undefined)	–	> 100 µM

Structure (SMILES)	GI50	TGI
CCOC(=O)c1ccc(O)cc1	–	> 100 µM
CCC(C)CN=C(N)c1ccc(N2CCN(c3ccc(C(N)=NCC(C)CC)cc3)CC2)cc1 (centres undefined)	27.9 µM	95.7 µM
Cc1ccccc1Cn1nc2ccccc2cc1=O	–	> 100 µM
CC(=O)OC1COC(n2nc(N)nc2C)C(OC(C)=O)C1OC(C)=O (centres undefined)	–	> 100 µM
CS(=O)(=O)Nc1ccc2c(c1)N(S(C)(=O)=O)CC2COS(C)(=O)=O (centres undefined)	–	> 100 µM
COc1ccc2c(c1OC)C(=O)OC2C1c2c(c(N)c3c(c2OC)OCO3)CCN1C (centres undefined)	6.93 µM	> 100 µM
CC(=O)/C(=C\c1c(-c2ccccc2)[nH]c2ccccc12)S(C)(=O)=O	9.13 µM	> 100 µM
CN/N=C(/C=C/c1ccccc1)C(C)C	–	> 100 µM
CCOc1ccccc1C(=O)/C=C/c1cc2ccccc2[nH]c1=O	0.149 µM	2.4 µM
O=C1C=CC2(NN=C(c3ccccc3)N2c2ccccc2)c2cccc(O)c21 (centres undefined)	3.96 µM	14.6 µM
O=C1c2ccccc2C(=O)c2nc3c(O)cccc3cc21	–	> 100 µM
C#CC#CC#CC#CC#CC#CC#CC#CC[C@@H]1OC[C@H](COC(=O)O[C@@H](C(=O)O[C@H]2C[C@@]3(O)[C@@H](OC(=O)c4ccccc4)[C@@H]4[C@]5(OC(C)=O)CO[C@@H]5C[C@H](O)[C@@]4(C)C(=O)[C@H](OC(C)=O)C(=C2C)C3(C)C)[C@@H](NC(=O)c2ccccc2)c2ccccc2)O1	1.58 µM	> 25 µM
O=C(NCCn1ccnn1)Nc1ccccc1	–	> 100 µM
CN1CCN(Cc2nc3cccc4c3c([n+]2[O-])-c2ccccc2-4)CC1	–	> 100 µM
O=C1NC(N/N=C\C(O)C(O)C(O)C(O)CO)=N/C1=C\c1ccc(Cl)cc1 (centres undefined)	–	> 89.3 µM
COc1ccc(/C=C/C(=O)Nc2cc(/C=C\c3cc(OC)c(OC)c(OC)c3)cc(OC)c2OC)cc1OC	4.66 µM	> 100 µM
Cc1cccc(-n2cnc3cc(C(=O)N4CCCCC4)ccc32)c1	> 100 µM	> 100 µM
COc1ccc(C2NC(=O)c3cc4c(cc3N2)OCO4)cc1 (centres undefined)	11.7 µM	> 100 µM
CCCCCCC1=NOC(C(c2cc[nH]c2)N(C)[C@H](C(=O)OC)C(C)C)C1 (some centres undefined)	–	> 100 µM
O=C([CH-]C(=O)C(F)(F)F)c1ccccc1.O=C([CH-]C(=O)C(F)(F)F)c1ccccc1.[O]=[U+2]=[O]	17.1 µM	97.1 µM
CC(CO)CCNc1ncnc2c1ncn2CCC(=O)O (centres undefined)	–	> 100 µM
O=C(OCc1ccccc1)c1nc2ccccc2n1S(=O)(=O)c1ccccc1	–	> 100 µM
CCC(=O)NC(Nc1ccccc1F)(C(F)(F)F)C(F)(F)F	–	> 100 µM
CCC(C)C1NC(=O)C(NC(=O)C(CC(C)C)N(C)C(=O)[C@@H]2C=CCN2C(=O)[C@H](C)O)C(C)OC(=O)[C@H](Cc2ccc(OC)cc2)N(C)C(=O)[C@@H]2CCCN2C(=O)[C@H](CC(C)C)NC(=O)C(C)C(=O)[C@H](C(C)C)OC(=O)CC1O (some centres undefined)	–	0.025 µM
CCCCCCC(O)(c1ccc(F)cc1)C(CN1CCOCC1)c1ccccc1 (centres undefined)	19.8 µM	44.4 µM

Structure (SMILES)	GI50	TGI
COCCOc1nc(-c2ccccc2)nc2ccccc12	–	> 100 µM
COc1ccc2c(c1OC)OC[C@@H](C1=CC(=O)C=C(O)C1=O)C2	–	32 µM
O=c1cc(/C=C/c2ccc(O)c(O)c2)cc(/C=C/c2ccc(O)c(O)c2)o1	–	23.1 µM and 23.5 µM
O=S(=O)(Nc1nccs1)c1ccc(Nc2nc(-c3cccs3)nc3ccc(I)cc23)cc1	–	39.6 µM
CC1(O)C(C)(O)C(C)(O)C1(C)O (centres undefined)	–	> 100 µM
CN1CCC(CN2c3ccccc3Sc3ccccc32)C1 (centres undefined)	–	30.9 µM
COc1cc2c3c(n(CCCN)c(=O)c2cc1OC)-c1ccc(N(C)C)cc1C3=O	17.6 µM	33.1 µM
COc1ccc2nc3c(n2c1)C(=O)C(=O)c1ccccc1-3	1.72 µM	3.15 µM
CC1(c2ccc(Cl)cc2)NC(=NCCO)c2ccccc21 (centres undefined)	–	> 100 µM
CC(C)(C)OC(=O)N(CCCN)CCCCN	–	> 100 µM
CCN(CC)C(=S)SS(=O)(=O)c1ccc(N)cc1	–	> 100 µM
C[C@]12CCC(=O)C(O)=C1CCC2=O	–	> 100 µM
COC(=O)c1ccc(C2SC(C)C(=O)N2NC(=O)C(O)c2ccccc2)cc1 (centres undefined)	> 100 µM	> 100 µM
COc1ccc2c(c1)C(=O)C1(C2)[C@H](c2ccccc2)C2C(=O)c3cc(OC)ccc3C2[C@H]1c1ccccc1 (some centres undefined)	–	> 100 µM
O=S(=O)(Nc1nc2ccccc2n1S(=O)(=O)c1ccccc1)c1ccccc1	–	> 100 µM
O=C1/C(=C/c2ccc(Cl)cc2)N=C(c2ccccc2)N1c1nc2ccc(Sc3ccccc3)cc2[nH]1	–	> 100 µM
CCCCc1ccc(Nc2nc3c(ncn3COCCBr)c(=O)[nH]2)cc1	–	> 100 µM
CC[N-]c1nnnn1CC.[Au+].c1ccc([PH+](c2ccccc2)c2ccccc2)cc1	4.58 µM	9.66 µM
COc1ccc(N)c(C(=O)CCNC(C)=O)c1	–	> 100 µM
CN(C)CCNC(=O)C1COc2cc(-c3cc(=O)c4ccccc4o3)ccc2O1 (centres undefined)	–	64.4 µM
Cc1ccc(I)cc1N=C=S	–	71.9 µM
O=C(OC1C(Oc2ccccc2COC(=O)C2(O)C=CCCC2=O)OC(CO)C(O)C1O)c1ccccc1 (centres undefined)	–	> 100 µM
O=S(=O)(Nc1cc(F)cc(F)c1)c1ccc(-c2cnc(C3CC3)o2)cc1	6.14 µM	> 100 µM
N/N=c1\c2ccccc2c2ccc3c4ccccc4/c(=N\N)c3c12	–	> 100 µM
CCCCCC[n+]1noc(N)c1-c1ccc(-c2c(N)on[n+]2CCCCCC)cc1	15 µg/mL	28.7 µg/mL
